Assay results as given in PubChem BioAssay AID485344 (National Center for Advancing Translational Sciences (NCATS), 2010).
In all, about 340,000 compounds went through this assay and about 6,900 (2%) were called active. No stated cut-off is given here; in the data, active means inhibition above about 30%; inactive means below that, where a call was filed. This is a selection; strong and weak results do not stand in their true shares. The source gives no active or inactive call for entries shown without one.

The compounds below were run against D(2) dopamine receptor (Homo sapiens) (UniProt P14416) (assay: HTS Assay for Allosteric Antagonists of the Human D2 Dopamine Receptor: Primary Screen for Antagonists). Conditions: HEK293 TREx D2 cells, calcium flux, dopamine EC80; at 10 µM; stronger effect = higher value.
Chain of UniProt P14416 (P14416 whole entry, looked up): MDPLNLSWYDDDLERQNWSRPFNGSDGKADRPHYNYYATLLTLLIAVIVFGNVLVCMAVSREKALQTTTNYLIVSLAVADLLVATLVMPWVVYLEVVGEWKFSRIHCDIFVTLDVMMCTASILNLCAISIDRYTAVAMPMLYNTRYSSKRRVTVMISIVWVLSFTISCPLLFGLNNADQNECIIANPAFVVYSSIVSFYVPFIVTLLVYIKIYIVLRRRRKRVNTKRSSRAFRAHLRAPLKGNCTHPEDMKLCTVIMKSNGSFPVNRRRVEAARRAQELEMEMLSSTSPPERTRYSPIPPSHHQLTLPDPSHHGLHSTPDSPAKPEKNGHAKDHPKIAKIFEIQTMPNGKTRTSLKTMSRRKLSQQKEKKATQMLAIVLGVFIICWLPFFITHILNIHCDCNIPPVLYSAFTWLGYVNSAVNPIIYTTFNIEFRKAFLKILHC
Summary of the method: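 Tetracycline-induced HEK293 T-REx cells expressing D2 force-coupled to calcium signalling were dye-loaded, exposed to compound for 180 s, then challenged with an EC80 of dopamine; calcium flux was followed kinetically for a further 180 s.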
Further: 0% is about no effect.

Structure (SMILES)	inhibition
CCc1cccc(C)c1NC(=O)Cn1nc(C)n2cccc2c1=O	-0.729%
COc1ccc(C(=O)Nc2ccc(N(C)Cc3ccccc3)c(C(=O)O)c2)cc1	-0.969%
CCOC(=O)Cn1c(=O)n(CC2CCCO2)c2nc(-c3ccccc3)nc(C(N)=O)c21 (stereo not drawn)	-9.92%
CCOC(=O)C1=C(CN2CCN(c3ccccc3OC)CC2)NC(=O)NC1c1ccccc1 (stereo not drawn)	-11%
O=C(CN1CCCN(Cc2ccccc2F)S1(=O)=O)Nc1ccc(F)c(Cl)c1	-10.4%
CC(C)NC(=O)N1[C@H](c2cccs2)[C@@H](C)C(=O)[C@@H](C)[C@@H]1c1cccs1	22.3%
COc1ccc(-n2nc(C(=O)Nc3cc(C)ccn3)c3c4ccccc4n(C)c3c2=O)cc1	8.26%
CCCCn1c(=O)n(-c2cc(OC)ccc2OC)c(=O)c2c3c(sc21)CN(C(C)=O)CC3	7.67%
O=C(CC1N=C2c3ccccc3N=C(SCc3ccccc3Cl)N2C1=O)NCCc1ccccc1 (stereo not drawn)	-12.1%
Cc1cc(Nc2cccc(Cl)c2)nc2ccc(NC(=O)c3cncc(Br)c3)cc12	-11.6%
CCOc1ccc(-n2nc3ccc(NC(=O)c4ccc(OC)c(Cl)c4)cc3n2)cc1	-5.29%
Cc1ccc2c(=O)cc(C(=O)Nc3sc4c(c3C(=O)NCC3CCCO3)CCC4)oc2c1 (stereo not drawn)	16%
CCC(C(=O)NCc1ccccc1OC)n1nc(C)n2c(cc3occc32)c1=O (stereo not drawn)	3.08%
Cc1oc(-c2ccccc2Cl)nc1CS(=O)(=O)CC(=O)NCc1ccc(F)cc1	11.9%
O=c1c(=O)n(-c2ccc(F)c(F)c2)ccn1Cc1ccc(F)cc1Cl	6.26%
CCOc1ccccc1NC(=O)CN(C)S(=O)(=O)c1ccc(C(=O)N2CCOCC2)s1	9.58%
COc1ccc(C)cc1NC(=O)C1CCCN(c2ncnc3onc(C)c23)C1 (stereo not drawn)	3.64%
CCOC(=O)c1noc2ncn(CC(=O)Nc3cccc(C(F)(F)F)c3)c(=O)c12	6.06%
CCc1nn(CC(=O)N2CCCCC2)c(=O)c2cc3occc3n12	-3.71%
CCCc1nnc(NC(=O)c2nc(SCC)ncc2Cl)s1	-8.82%
CCOC(=O)C1=C(CS(=O)(=O)c2ccc(F)c(C)c2)NC(=O)NC1c1ccccc1OC (stereo not drawn)	-13.1%
COc1ccc(Cl)cc1C(=O)NCCN(C)C	active: 33.5%
CCOc1ccc(NC(=O)N2CCN(c3nnc(C)c4c(C)n(-c5ccccc5)nc34)CC2)cc1	-1.84%
O=C(CCCSc1nnc(Nc2ccccc2F)s1)N1CCOCC1	active: 39.3%
COc1ccc(C(=O)c2c[nH]cc2-c2ccccc2)cc1	active: 39.8%

Structure (SMILES)	inhibition
COc1ccc(C)cc1NC(=O)C1CCN(S(=O)(=O)c2cc(Br)cc3c2N(C(C)=O)CC3)CC1	4.12%
CCc1nn2c(=O)cc(COC(=O)c3ccccc3)nc2s1	-9.84%
CCOC(=O)CNC(=O)N1CCCN(S(=O)(=O)c2ccc3c(ccn3CC)c2)CC1	27.2%
Cc1ccc(-c2cc3ncc4c(n3n2)-c2cc(F)ccc2OC4)cc1	12.4%
CCOc1ccccc1NC(=O)N(Cc1ccc(C)o1)C1CCN(C(C)=O)CC1	-2.14%
COc1ccc(C)c2sc(N3CCN(C(=O)c4cccc(F)c4)CC3)nc12	-5.86%
CCc1ccc(C(=O)c2cn(CC(=O)Nc3cccc(OC)c3)c3cc4c(cc3c2=O)OCO4)cc1	0.857%
O=C(CSc1nnc(-c2ccc(Cl)cc2)o1)c1ccc([N+](=O)[O-])cc1	-3.93%
O=C(c1ccccc1Br)N(Cc1ccco1)Cc1ccco1	5.47%
C/C(=N\N(C)C)c1ccc(OCCOc2ccc([N+](=O)[O-])cc2)cc1	active: 33.5%
CCn1c(SCc2c(F)cccc2Cl)nc(=O)c2c(C(=O)OC)cc(C3CC3)nc21	-7.1%
Cc1cc(Cl)ccc1NC(=O)Cc1ccc(NC(=O)N2CCCCc3ccccc32)cc1	4.71%
COC(=O)c1cccc(NC2=NS(=O)(=O)c3ccccc32)c1	-6.79%
COc1ccc(OC)c(NC(=O)C2Cc3ccccc3CN2S(=O)(=O)c2ccc(F)cc2)c1 (stereo not drawn)	16.4%
CC1=C(C(=O)Nc2ccc(Cl)cc2)C(c2ccccc2F)n2nc(SCc3cccc(Cl)c3)nc2N1 (stereo not drawn)	16.8%
Cc1cc(C)nc(/N=C(\N)Nc2ccc([N+](=O)[O-])cc2)n1	active: 36.8%
CCc1ccc(CNC(=O)c2cc3n(n2)CCCN(Cc2ccccc2)C3=O)cc1	6.77%
Cc1ccc(Cn2c(=O)n(CCc3ccc(Cl)cc3)c(=O)c3ccccc32)cc1	3.35%
CCOC(=O)C1CCCN(C(=O)c2cc(-c3ccc(F)cc3)nc3ccccc23)C1 (stereo not drawn)	active: 47.3%
Cc1ccc(-n2ncc3c(NC(C)c4ccccc4)ncnc32)cc1 (stereo not drawn)	-15.2%
COc1ccc(NC(=O)Cn2c(=O)n(Cc3ccccc3OC)c(=O)c3cccnc32)cc1Cl	-6.32%
O=S(=O)(c1ccc(Cl)cc1)c1nc(-c2cccs2)oc1SCc1ccc(F)cc1	-1.95%
COc1cccc(CNC(=O)Cc2c(C)c3c(cc(C)c4c(C)c(C)oc43)oc2=O)c1	3.85%
CC1(NC(=S)Nc2ccc3ccccc3c2)CCS(=O)(=O)C1 (stereo not drawn)	active: 36.6%
COc1ccc(NC(=O)CCN2CCN(Cc3ccccc3)CC2)c(OC)c1	active: 41%

Structure (SMILES)	inhibition
CCC(C)c1ccccc1OCCCCN1CCCC1 (stereo not drawn)	active: 64.7%
Cn1nnc2c(NCc3ccc(Cl)cc3)ncnc21	-16.2%
COc1ccccc1C1CCN(c2cc(O)ccc2[N+](=O)[O-])CC1	active: 34.4%
COc1ccc(C2(Nc3cccc(F)c3)C(=O)c3ccccc3C2=O)cc1	-8.96%
COCCNC(=O)C1CCN(C(=O)c2cc3sccc3n2Cc2ccc(Cl)cc2)CC1	-22.7%
CCCN(CCC)CCCNC(=O)C1CCCN(Cc2nc(-c3ccc(Cl)cc3)oc2C)C1 (stereo not drawn)	-14%
O=C(NCC1CCCO1)c1cccc(S(=O)(=O)N2CCCCC2)c1 (stereo not drawn)	active: 30.9%
COc1ccccc1NC(=O)CSC1=Nc2ccccc2C2=NC(CCC(=O)NCc3ccco3)C(=O)N12 (stereo not drawn)	2.01%
O=C(NN=C1CCCC1)c1ccn[nH]1	active: 41.7%
O=c1ccc2cc(S(=O)(=O)Nc3ccc(F)c(Cl)c3)ccc2[nH]1	-16.8%
CCCC(C)NC(=O)C1CCN(C(=O)C2CC(=O)N(c3ccc(C)cc3)C2)CC1 (stereo not drawn)	active: 33%
CCOc1ccc2nc(SCC(=O)Nc3ccc(F)cc3)nc(-c3ccccc3)c2c1	14%
CCOC(=O)Cc1ccc(NC(=O)N2CCSc3ccccc32)cc1	-5.59%
Cc1ccc(-c2nc(CS(=O)CC(=O)NCc3ccccc3Cl)c(C)o2)cc1 (stereo not drawn)	1.13%
Cc1cc(NC(=O)CCn2c(=O)c3cccn3c3cccnc32)ccc1Br	-3.03%
CCC(=O)N1c2ccccc2CC1C(=O)NCCc1cc(OC)c(OC)c(OC)c1 (stereo not drawn)	5.57%
CC(=O)SCC[N+](C)(C)C	active: 35.9%
CCCN1CCN(c2nnc(-n3cccc3C(=O)Nc3cc(Cl)ccc3C)s2)CC1	10.1%
O=C(CN1CCN(c2ccccn2)CC1)Nc1ccccc1Br	active: 38%
Cc1ccc(NC(=O)C2CCCN(S(=O)(=O)c3cccc4nsnc34)C2)cc1C (stereo not drawn)	-0.969%
COc1ccc(-n2c(=O)c3sc4ccccc4c3n(C)c2=O)cc1	14.5%
CN1CCN(c2nc(-c3ccccc3)ncc2S(=O)(=O)c2ccccc2)CC1	active: 54.3%
CCCn1c(CCC(=O)Nc2cc(C(=O)OC)cc(C(=O)OC)c2)nc2cccnc21	-1.02%
O=C(CSc1nc2sc3c(c2c(=O)[nH]1)CCCC3)NCCO	active: 42.2%
COC(=O)c1scc(-c2ccc(C)cc2)c1S(=O)(=O)Nc1cc(Cl)c(OC)cc1OC	7.39%

Structure (SMILES)	inhibition
CCCn1c(CCC(=O)Nc2cc(OC)cc(OC)c2)nc2cccnc21	0.681%
CCOC(=O)c1[nH]cnc1C(=O)Nc1cccc(OC)c1	6.4%
Cc1ccccc1CCNC(=O)c1ccc2c(c1)nc1n2CCOC1	-3.92%
Cc1ccc(-c2[nH]ncc2CN2CCN(C(=O)c3cccs3)CC2)cc1C	active: 66.5%
CCCCN(CCCC)CCCNC(=O)Cn1cc2c(n1)-c1c(oc(C(=O)N3CCCC3)c1C)CC2	1.95%
CCOC(=O)c1ccc(N2C(=O)c3[nH]nc(-c4ccc(C)cc4)c3C2c2cccs2)cc1 (stereo not drawn)	5.33%
CSc1ncc(C(=O)Nc2ccccc2C(F)(F)F)c(-c2ccccc2)n1	-7.29%
COc1ccc(N(CC(=O)Nc2c(C)n(C)n(-c3ccccc3)c2=O)S(=O)(=O)c2ccc(C)cc2)cc1OC	active: 34.6%
CCCc1nc2nc(C)c(NS(=O)(=O)c3ccc(CC(C)C)cc3)c(=O)n2[nH]1	-7.82%
CCCCn1cc(S(=O)(=O)c2cc(C)ccc2C)c(=O)c2cc(F)c(N3CCC(C)CC3)cc21	11.2%
Cc1nnc(SC(C)C(=O)NCC2CCCO2)s1 (stereo not drawn)	active: 31.1%
CCOC(=O)c1c(C)[nH]c(C)c1S(=O)(=O)N1CCC(C(=O)Nc2ccc(OCC)cc2)CC1	-2.97%
CCc1ccccc1NC(=O)Nc1c(C)n(C)n(-c2ccccc2)c1=O	5.58%
CCCC(=O)Nc1cc2nn(-c3ccccc3)nc2cc1C	8.1%
Cc1ccc(C)c(N2CCN(C(=O)CN3C(=O)COc4ccc(S(=O)(=O)N5CCCC5)cc43)CC2)c1	9.36%
CCc1cccc(NC(=O)CN(c2ccc(C)c(C)c2)S(=O)(=O)c2ccsc2C(=O)OC)c1	8.54%
COc1ccc(C(=O)NCC(c2ccco2)S(=O)(=O)c2ccc(F)cc2)cc1 (stereo not drawn)	8.74%
N#CCCN1CCN(Cc2cc(-c3ccccc3)ccc2O)CC1	active: 65.1%
CCc1ccccc1NS(=O)(=O)c1ccc2nc(-c3ccccc3)[nH]c2c1	2.04%
CC(C)OCCCNC(=O)C(=O)Nc1c2c(nn1-c1ccccc1)CS(=O)(=O)C2	17.9%
COc1ccc2c(c1)C=C(CN1CCN(Cc3ccccc3C)C(CCO)C1)CO2 (stereo not drawn)	active: 57.8%
Cc1ccc2c(c1)N(CC(=O)NCCc1ccccc1)C(=O)CO2	-3.71%
Cc1ccc(N2C(=O)c3n[nH]c(C)c3C2c2ccc(Cl)cc2)cc1 (stereo not drawn)	0.483%
